# Reference: the BET-seq Pho4 binding data (Le et al. 2018)
# Some of the results follow. Values were computed here from the reads of four pooled replicates and scatter widely.
# Biological target: T1, Pho4 (S. cerevisiae) (UniProt P07270)
# T1 sequence: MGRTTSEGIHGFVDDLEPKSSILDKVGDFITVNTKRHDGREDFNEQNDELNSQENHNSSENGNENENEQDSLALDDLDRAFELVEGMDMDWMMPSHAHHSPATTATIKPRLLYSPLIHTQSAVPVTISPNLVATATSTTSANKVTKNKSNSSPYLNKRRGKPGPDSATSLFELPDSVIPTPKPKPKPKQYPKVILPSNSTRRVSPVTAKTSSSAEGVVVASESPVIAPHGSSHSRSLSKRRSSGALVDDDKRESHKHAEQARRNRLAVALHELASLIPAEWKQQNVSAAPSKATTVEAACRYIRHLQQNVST
# Test: relative binding free energy (BET-seq); higher = weaker binding
# Details: reference: library average
row,Sequence,relative binding free energy
1,CTTGGCACGTGTTTAT,-0.14 kcal/mol
2,TGATGCACGTGCGTAT,-0.06 kcal/mol
3,GTCGGCACGTGGGTCG,-0.21 kcal/mol
4,GGTATCACGTGCGGTT,0.16 kcal/mol
5,TATGGCACGTGCTATA,-0.15 kcal/mol
6,AGGGGCACGTGAATAA,0.16 kcal/mol
7,TGAAGCACGTGTCAGT,-0.02 kcal/mol
8,TGTACCACGTGAGAGT,0.31 kcal/mol
9,TCGGACACGTGTAGGT,0.01 kcal/mol
10,GGGAGCACGTGGAGGT,-0.18 kcal/mol
11,TAGGTCACGTGTAGGG,0.14 kcal/mol
12,GGGGACACGTGGTATA,-0.01 kcal/mol
13,GGGCGCACGTGGAATG,0.04 kcal/mol
14,ACATGCACGTGAAGGG,0.2 kcal/mol
15,TTGCGCACGTGTTGAT,0.07 kcal/mol
16,ACGTTCACGTGTATGA,0.32 kcal/mol
17,CGATGCACGTGATTGT,0.04 kcal/mol
18,GGTAACACGTGTAGGT,0.09 kcal/mol
19,CTGTCCACGTGGTGTT,-0.21 kcal/mol
20,TGAGGCACGTGGTCGC,-0.21 kcal/mol
21,TTTGGCACGTGCAGCG,-0.11 kcal/mol
22,CGTATCACGTGGTTCG,0.04 kcal/mol
23,CGGACCACGTGGGTGT,-0.09 kcal/mol

row,Sequence,relative binding free energy
1,ATGTTCACGTGTTGAT,0.22 kcal/mol
2,GTTTCCACGTGGTGTT,0.07 kcal/mol
3,TGTAACACGTGATTAA,0.18 kcal/mol
4,GTATTCACGTGTTCTA,0.47 kcal/mol
5,TTAGACACGTGGTGAA,0 kcal/mol
6,AATTGCACGTGGCGTA,-0.15 kcal/mol
7,ACGGGCACGTGACGGT,0.07 kcal/mol
8,ATGTTCACGTGGATAA,0.29 kcal/mol
9,CGATGCACGTGTGGGA,0.07 kcal/mol
10,TTTGACACGTGGTACA,0.01 kcal/mol
11,TTTGACACGTGTCATG,0.11 kcal/mol
12,GCGTCCACGTGGGGCG,-0.15 kcal/mol
13,GGGTTCACGTGAGATA,0.52 kcal/mol
14,AAGGACACGTGGCTGT,-0.09 kcal/mol
15,TGTTGCACGTGCGTCT,-0.07 kcal/mol
16,TTTGTCACGTGTAGGC,0.17 kcal/mol
17,TACGACACGTGTTTTT,0.11 kcal/mol
18,AGTTGCACGTGTAGCG,-0.11 kcal/mol
19,CATGACACGTGGGGTC,-0.12 kcal/mol
20,CGGTACACGTGAAGGT,0.32 kcal/mol
21,CGGGGCACGTGTATAT,0.03 kcal/mol
22,TTCCTCACGTGGGTGT,0 kcal/mol
23,GTTGACACGTGGGGTC,-0.02 kcal/mol

row,Sequence,relative binding free energy
1,GATAGCACGTGGTAGT,-0.16 kcal/mol
2,AATCGCACGTGGTTTT,0.06 kcal/mol
3,CGTGTCACGTGTGCTG,0.06 kcal/mol
4,TGTAGCACGTGTACGG,0.1 kcal/mol
5,GCAGGCACGTGTGTCG,0.02 kcal/mol
6,GGGTGCACGTGGGATC,-0.03 kcal/mol
7,TTGGTCACGTGGTATC,-0.08 kcal/mol
8,GGAGACACGTGTTCGG,-0.02 kcal/mol
9,TGAGTCACGTGTGGGA,0.23 kcal/mol
10,GTGAGCACGTGGATTT,0.02 kcal/mol
11,GGAAGCACGTGTGTGA,-0.14 kcal/mol
12,CGTTTCACGTGTGCGT,0.24 kcal/mol
13,GATATCACGTGGATTA,0.24 kcal/mol
14,CTGGTCACGTGTGATG,0.22 kcal/mol
15,GCCGGCACGTGGTTTG,-0.16 kcal/mol
16,TGTATCACGTGGGTTC,0.02 kcal/mol
17,GTGGGCACGTGTAGGC,-0.03 kcal/mol
18,TTAGTCACGTGGAGAG,0.03 kcal/mol
19,GGGGTCACGTGGGATC,0.15 kcal/mol
20,GATGGCACGTGTCTGT,-0.13 kcal/mol
21,TTGGGCACGTGACGGA,0.04 kcal/mol
22,CGTTACACGTGATGTG,0.06 kcal/mol
23,GATATCACGTGTGATG,0.36 kcal/mol

row,Sequence,relative binding free energy
1,GGGTGCACGTGAAATA,0.13 kcal/mol
2,AGAGGCACGTGTTGCT,-0.07 kcal/mol
3,ATTTCCACGTGGGTTT,-0.04 kcal/mol
4,TTGGGCACGTGATTAC,0.07 kcal/mol
5,GTCTCCACGTGTGTTG,0.14 kcal/mol
6,GTAGACACGTGGGGAA,0.03 kcal/mol
7,TGTTCCACGTGTGCGT,-0.06 kcal/mol
8,AGTTTCACGTGAGTTT,0.44 kcal/mol
9,TGGGCCACGTGGAGTC,0.01 kcal/mol
10,TATACCACGTGTTGGG,-0.13 kcal/mol
11,TAGGGCACGTGTTGGC,0.08 kcal/mol
12,TATTGCACGTGAAATA,0.11 kcal/mol
13,GGTAGCACGTGGTTAG,-0.13 kcal/mol
14,GATGTCACGTGTTATA,0.11 kcal/mol
15,GTTCGCACGTGGTTCT,0.03 kcal/mol
16,AATGTCACGTGGAGGA,0.04 kcal/mol
17,AGTGTCACGTGTGAGC,0.09 kcal/mol
18,GAGGTCACGTGTAGGT,0.15 kcal/mol
19,TGTAGCACGTGTTCTA,-0.06 kcal/mol
20,TACGTCACGTGGGTAA,0.02 kcal/mol
21,AGTTACACGTGGGGAA,0 kcal/mol
22,AAGAGCACGTGATTGG,0.15 kcal/mol
23,AATTTCACGTGGTTCG,0.3 kcal/mol

row,Sequence,relative binding free energy
1,TTTTGCACGTGCTATA,-0.13 kcal/mol
2,GGGTACACGTGTGCTT,0.26 kcal/mol
3,CTGTACACGTGTTGGT,0.11 kcal/mol
4,ATTGGCACGTGTAACG,-0.08 kcal/mol
5,GTAGTCACGTGCTGGA,0.1 kcal/mol
6,AGTAACACGTGACGGT,0.12 kcal/mol
7,GTGCCCACGTGGGGAT,-0.12 kcal/mol
8,TTTGCCACGTGTGCGT,-0.18 kcal/mol
9,AAGTACACGTGGTAAG,0.01 kcal/mol
10,AGATTCACGTGAGGTG,0.36 kcal/mol
11,TTTGGCACGTGCGAGT,-0.07 kcal/mol
12,GTGGGCACGTGTATTA,0.01 kcal/mol
13,TAAGGCACGTGAAAGG,0.16 kcal/mol
14,GTGTCCACGTGTGGTG,0.07 kcal/mol
15,ATCGCCACGTGTTGGG,-0.06 kcal/mol
16,GGTCACACGTGATGGA,0.25 kcal/mol
17,ATGCACACGTGTCGGT,0.13 kcal/mol
18,AGATACACGTGTTGTG,0.07 kcal/mol
19,GGTTGCACGTGGTCAT,-0.02 kcal/mol
20,TGAGGCACGTGGGTTA,-0.14 kcal/mol
21,CACGGCACGTGGGGTT,-0.26 kcal/mol
22,AGAGCCACGTGATTGG,0.14 kcal/mol
23,GGGTTCACGTGTTGTC,0.26 kcal/mol
